Experimental data as given in the supplement of paper PMC4967469.
By IC50 is meant the dose at which the fit gives 50% viability; where the fit passes the top or lowest dose, that dose stands as a limit. AUC, from the same fit, is the share of area under the viability curve across the 256-fold dose range; values near 1 show little effect. For part of these data: A top dose marked as inferred comes from the curve model; the source does not state it.

Tests used:
Test in all cases: Viability of human cancer cell lines after 72 h of drug (GDSC screen)
Temsirolimus = compound: CO[C@H]1C[C@@H]2CC[C@@H](C)[C@@](O)(O2)C(=O)C(=O)N2CCCC[C@H]2C(=O)O[C@H]([C@H](C)C[C@@H]2CC[C@@H](OC(=O)C(C)(CO)CO)[C@H](OC)C2)CC(=O)[C@H](C)/C=C(\C)[C@@H](O)[C@@H](OC)C(=O)[C@H](C)C[C@H](C)/C=C/C=C/C=C/1C [Temsirolimus]; details: top dose 0.2 µM
Protocol: (§1)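 Human cancer cell lines in 384-well plates, medium with 10% serum, drug for 72 h over a 256-fold dose range (nine 2-fold or five 4-fold steps up to the top dose). Adherent lines were fixed and stained with the nucleic acid dye Syto60, suspension lines read with resazurin; signal relative to control wells, capped at 0 and 100%. One two-parameter sigmoid per drug and line, fitted in a mixed model over all curves with the slope shared within a line.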

XMD15-27 = compound: C=CC(=O)Nc1ccc(C(=O)c2sc(Nc3ccc(N4CCN(C)CC4)cc3OC)nc2N)cc1 [XMD15-27]; details: top dose 10.24 µM; top dose inferred
Protocol: as §1

SL 0101-1 = compound: CC(=O)O[C@@H]1[C@@H](OC(C)=O)[C@@H](O)[C@H](Oc2c(-c3ccc(O)cc3)oc3cc(O)cc(O)c3c2=O)O[C@H]1C [SL 0101-1]; details: top dose 10 µM; top dose inferred
Protocol: as §1

Cell Line | AUC (Temsirolimus) | IC50 (Temsirolimus) [µM] | AUC (XMD15-27) | IC50 (XMD15-27) [µM] | AUC (SL 0101-1) | IC50 (SL 0101-1) [µM]
MEG-01 (chronic myeloid leukaemia, suspension) | 0.867 | 0.163 | 0.983 | > 10.2 | 0.988 | > 10
MEL-JUSO (melanoma, adherent) | 0.623 | 0.0284 | 0.956 | > 10.2 | 0.984 | > 10
MES-SA (uterus, adherent) | 0.827 | 0.0982 | 0.992 | > 10.2 | 0.992 | > 10
MFE-280 (endometrium, adherent) | 0.964 | > 0.2 | 0.942 | > 10.2 | 0.982 | > 10
MFE-296 (endometrium, adherent) | 0.453 | 0.00919 | 0.985 | > 10.2 | 0.948 | > 10
MFH-ino (soft tissue, adherent) | 0.341 | 0.00417 | 0.983 | > 10.2 | 0.983 | > 10
MFM-223 (breast, adherent) | 0.799 | 0.0947 | 0.983 | > 10.2 | 0.989 | > 10
MG-63 (osteosarcoma, adherent) | 0.71 | 0.0545 | 0.984 | > 10.2 | 0.974 | > 10
MHH-ES-1 (Ewing sarcoma, adherent) | 0.452 | 0.00925 | 0.952 | > 10.2 | 0.986 | > 10
MHH-NB-11 (neuroblastoma, adherent) | 0.965 | > 0.2 | 0.985 | > 10.2 | 0.982 | > 10
MHH-PREB-1 (B-cell leukaemia, suspension) | 0.496 | 0.0122 | 0.988 | > 10.2 | 0.989 | > 10
MIA-PaCa-2 (pancreas, adherent) | 0.655 | 0.0353 | 0.985 | > 10.2 | 0.977 | > 10
MKN28 (stomach, adherent) | 0.767 | 0.076 | 0.98 | > 10.2 | 0.984 | > 10
ML-2 (acute myeloid leukaemia, suspension) | 0.942 | > 0.2 | 0.977 | > 10.2 | 0.989 | > 10
MLMA (hairy cell leukaemia, semi-adherent) | 0.349 | 0.00476 | 0.975 | > 10.2 | 0.954 | > 10
MMAC-SF (melanoma, adherent) | 0.93 | > 0.2 | 0.987 | > 10.2 | 0.986 | > 10
MN-60 (B-cell leukaemia, suspension) | 0.865 | 0.188 | 0.988 | > 10.2 | 0.987 | > 10
MOG-G-CCM (glioma, adherent) | 0.529 | 0.0152 | 0.964 | > 10.2 | 0.982 | > 10
MOG-G-UVW (glioma, adherent) | 0.6 | 0.0233 | 0.987 | > 10.2 | 0.977 | > 10
MOLP-8 (myeloma, suspension) | 0.631 | 0.0282 | 0.958 | > 10.2 | 0.985 | > 10
MOLT-4 (lymphoblastic leukaemia, suspension) | 0.364 | 0.0057 | 0.981 | > 10.2 | 0.95 | > 10
MOLT-13 (T-cell lymphoblastic leukaemia, suspension) | 0.987 | > 0.2 | 0.95 | > 10.2 | 0.985 | > 10
MONO-MAC-6 (acute myeloid leukaemia, suspension) | 0.802 | 0.105 | 0.963 | > 10.2 | 0.956 | > 10
MPP-89 (mesothelioma, adherent) | 0.674 | 0.0444 | 0.982 | > 10.2 | 0.976 | > 10
MRK-nu-1 (breast, suspension) | 0.885 | 0.188 | 0.99 | > 10.2 | 0.99 | > 10
MS-1 (small cell lung carcinoma, suspension) | 0.957 | > 0.2 | 0.988 | > 10.2 | 0.99 | > 10
MSTO-211H (mesothelioma, adherent) | 0.666 | 0.0343 | 0.991 | > 10.2 | 0.975 | > 10
MV-4-11 (leukaemia, suspension) | 0.774 | 0.065 | 0.918 | > 10.2 | 0.958 | > 10
